*: point of attachment. Palmitoyl = CCCCCCCCCCCCCCCC(=O)*
T1: peptide amphiphile C16-V3A3E3 (N-palmitoyl group conjugated to V3A3E3) (SMILES …(=O)N[C@H](C(=O)N[C@H](C(=O)N[C@H](C(=O)N[C@@H](C)C(=O)N[C@@H](C)C(=O)N[C@@H](C)C(=O)N[C@@H](CCC(=O)O)C(=O)N[C@@H](CCC(=O)O)C(=O)N[C@@H](CCC(=O)O)C(N)=O)C(C)C)C(C)C)C(C)C)
T1 construct: Self-assembles into nanofilaments or nanoribbons, so in the assays it is a supramolecular assembly, annealed or non-annealed, and not a monomer; also called E3 PA
T1 peptide: Palmitoyl-VVVAAAEEE-NH2

B1: free peptide P1 (V3A3E3) (peptide)
peptide: Ac-VVVAAAEEE-NH2

Assays:
[1] = biological target: T2, Aβ42 (Homo sapiens, UniProt P05067); assay: Aβ42 aggregation monitored by thioflavin T (ThT) fluorescence assay; assay type: biochemical; details: total 30 μM, 37° C.
T2 construct: incubated at 37° C. with monomeric Aβ42
Experimental: FIG. 21. Aβ42 aggregation kinetics monitored by ThT fluorescence at 37° C. for 12 hours. Incubation starts with 10 μM Aβ42 and aged (FIG. 21A) or annealed (FIG. 21B) PA solution at different concentrations.

[2] = biological target: T2, Aβ42; assay: morphology of aggregated Aβ42 by negatively stained TEM; assay type: biochemical; details: 16 hours at 37° C.; peptide alone, PA alone or non-annealed co-assemblies
Experimental: FIG. 22. Representative negative staining TEM images of Aβ42 incubated under 37° C. for 16 hours without or with PA or P4 alone, P4/PA co-assemblies at non-annealed and annealed states. Scale bar is 100 nm.
To characterize the morphology of Aβ42 aggregated in the presence of P4/PA co-assemblies, monomeric Aβ42 was incubated by itself, with P4 alone, with PA alone, or with P4/PA co-assemblies for 16 hours at 37° C., and the resulting solutions were imaged by negatively stained TEM (FIG. 22).

[3] = test system: primary mouse cortical neurons; assay: Aβ42 neurotoxicity: LDH assay and cleaved caspase-3 western blot; details: peptide alone or non-annealed assemblies; LDH 24 h and 48 h, caspase-3 12 h
[4] = biological target: T1, peptide amphiphile C16-V3A3E3 …; assay: fluorescence anisotropy of TAMRA-conjugated peptide, non-annealed peptide/PA co-assemblies against peptide alone

Molecule	inhibition of Aβ42 β-sheet aggregation (reduced ThT signal relative to Aβ42 alone) ([1]; annealed) [%]	inhibition of Aβ42 β-sheet aggregation (reduced ThT signal relative to Aβ42 alone) ([1]; non-annealed (without annealing)) [%]	morphology of Aβ42 aggregated in the presence of the sample [2]	cell death / neurotoxicity in the presence of Aβ42 (LDH, cleaved caspase-3) [3]	binding result [4]
C16-V3A3E3 (SEQ ID NO: 47) (Palmitoyl-VVVAAAEEE-NH2) [peptide amphiphile composed of N-palmitoyl group conjugated to V3A3E3]	34	22	a mixture of micelles and fibrils that were polydisperse in width	–	–
Ac-LPFFD-NH2 [P4, Ac-LPFFD (SEQ ID NO: 45)-NH2, reference compound]	–	–	mostly micelles and very few fibrils of reduced length	decreased cell death compared to Aβ42	–
B1	–	–	–	–	binds

From patent US20230287045A1, “METHODS FOR ASSEMBLING PEPTIDES INTO PEPTIDE AMPHIPHILE NANOFIBERS” (Northwestern University, priority 2020, published 2023)
